Assay results: paper PMC9911399, “Two distinct binding modes provide the RNA-binding protein RbFox with extraordinary sequence specificity”
Residue numbers refer to the chain shown, from its start. This is one part of the list.

T1: RBFOX1 RRM RbFoxmut (Fox-RRM*) (Homo sapiens, UniProt Q9NWB1 109-208, R118D;E147R;N151S;E152T)
T1 sequence: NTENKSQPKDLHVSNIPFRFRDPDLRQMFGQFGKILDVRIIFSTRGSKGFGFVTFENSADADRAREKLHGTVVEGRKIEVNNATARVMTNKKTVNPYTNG

B1: AGCCGUG (DNA:RNA)
RNA: GGGAGACCGGAAUUCAGAUUGUCCAGCCGUGUUAAAUCCCGUCGUAGCCACCA
DNA 1: CAATCTGAATTCCGGTCTCCC
DNA 2: TGGTGGCTACGACGGGATT
B2: CUCGUAG (DNA:RNA)
RNA: B1 RNA with A25C, G26U, C28G, G29U, U30A
DNA 1: CAATCTGAATTCCGGTCTCCC
DNA 2: TGGTGGCTACGACGGGATT
B3: ACGUUCA (DNA:RNA)
RNA: B1 RNA with G26C, C27G, C28U, G29U, U30C, G31A
DNA 1: CAATCTGAATTCCGGTCTCCC
DNA 2: TGGTGGCTACGACGGGATT
B4: CCCUAGC (DNA:RNA)
RNA: B1 RNA with A25C, G26C, C28U, G29A, U30G, G31C
DNA 1: CAATCTGAATTCCGGTCTCCC
DNA 2: TGGTGGCTACGACGGGATT
B5: UCGAACG (DNA:RNA)
RNA: B1 RNA with A25U, G26C, C27G, C28A, G29A, U30C
DNA 1: CAATCTGAATTCCGGTCTCCC
DNA 2: TGGTGGCTACGACGGGATT
B6: CAGCAAG (DNA:RNA)
RNA: B1 RNA with A25C, G26A, C27G, G29A, U30A
DNA 1: CAATCTGAATTCCGGTCTCCC
DNA 2: TGGTGGCTACGACGGGATT
B7: GAUUGCG (DNA:RNA)
RNA: B1 RNA with A25G, G26A, C27U, C28U, U30C
DNA 1: CAATCTGAATTCCGGTCTCCC
DNA 2: TGGTGGCTACGACGGGATT
B8: CUGUAAU (DNA:RNA)
RNA: GGGAGACCGGAAUUCAGAUUGUCCCUGUAAUUUAAAUCCCGUCGUAGCCACCA
DNA 1: CAATCTGAATTCCGGTCTCCC
DNA 2: TGGTGGCTACGACGGGATT
B9: ACAUGAU (DNA:RNA)
RNA: B8 RNA with C25A, U26C, G27A, A29G
DNA 1: CAATCTGAATTCCGGTCTCCC
DNA 2: TGGTGGCTACGACGGGATT
B10: AUUUUAC (DNA:RNA)
RNA: B8 RNA with C25A, G27U, A29U, U31C
DNA 1: CAATCTGAATTCCGGTCTCCC
DNA 2: TGGTGGCTACGACGGGATT
B11: UGUAAGA (DNA:RNA)
RNA: B1 RNA with A25U, C27U, C28A, G29A, U30G, G31A
DNA 1: CAATCTGAATTCCGGTCTCCC
DNA 2: TGGTGGCTACGACGGGATT
B12: ACCGGCA (DNA:RNA)
RNA: B1 RNA with G26C, C28G, U30C, G31A
DNA 1: CAATCTGAATTCCGGTCTCCC
DNA 2: TGGTGGCTACGACGGGATT
B13: AGCCGGC (DNA:RNA)
RNA: B1 RNA with U30G, G31C
DNA 1: CAATCTGAATTCCGGTCTCCC
DNA 2: TGGTGGCTACGACGGGATT
B14: AGACUUU (DNA:RNA)
RNA: B1 RNA with C27A, G29U, G31U
DNA 1: CAATCTGAATTCCGGTCTCCC
DNA 2: TGGTGGCTACGACGGGATT
B15: AGGAGAC (DNA:RNA)
RNA: B1 RNA with C27G, C28A, U30A, G31C
DNA 1: CAATCTGAATTCCGGTCTCCC
DNA 2: TGGTGGCTACGACGGGATT
B16: AGGUGCC (DNA:RNA)
RNA: B1 RNA with C27G, C28U, U30C, G31C
DNA 1: CAATCTGAATTCCGGTCTCCC
DNA 2: TGGTGGCTACGACGGGATT
B17: CUAAGGC (DNA:RNA)
RNA: B8 RNA with G27A, U28A, A29G, A30G, U31C
DNA 1: CAATCTGAATTCCGGTCTCCC
DNA 2: TGGTGGCTACGACGGGATT
B18: CGCAGCU (DNA:RNA)
RNA: B1 RNA with A25C, C28A, U30C, G31U
DNA 1: CAATCTGAATTCCGGTCTCCC
DNA 2: TGGTGGCTACGACGGGATT
B19: AUUCGUA (DNA:RNA)
RNA: B1 RNA with G26U, C27U, G31A
DNA 1: CAATCTGAATTCCGGTCTCCC
DNA 2: TGGTGGCTACGACGGGATT
B20: CGACACG (DNA:RNA)
RNA: B1 RNA with A25C, C27A, G29A, U30C
DNA 1: CAATCTGAATTCCGGTCTCCC
DNA 2: TGGTGGCTACGACGGGATT
B21: GGGUCGC (DNA:RNA)
RNA: B8 RNA with C25G, U26G, A29C, A30G, U31C
DNA 1: CAATCTGAATTCCGGTCTCCC
DNA 2: TGGTGGCTACGACGGGATT
B22: AUUGGGA (DNA:RNA)
RNA: B1 RNA with G26U, C27U, C28G, U30G, G31A
DNA 1: CAATCTGAATTCCGGTCTCCC
DNA 2: TGGTGGCTACGACGGGATT
B23: UAUUUCU (DNA:RNA)
RNA: B8 RNA with C25U, U26A, G27U, A29U, A30C
DNA 1: CAATCTGAATTCCGGTCTCCC
DNA 2: TGGTGGCTACGACGGGATT
B24: CGAUUGC (DNA:RNA)
RNA: B8 RNA with U26G, G27A, A29U, A30G, U31C
DNA 1: CAATCTGAATTCCGGTCTCCC
DNA 2: TGGTGGCTACGACGGGATT
B25: GCAGUUA (DNA:RNA)
RNA: B1 RNA with A25G, G26C, C27A, C28G, G29U, G31A
DNA 1: CAATCTGAATTCCGGTCTCCC
DNA 2: TGGTGGCTACGACGGGATT
B26: UUCGCUA (DNA:RNA)
RNA: B1 RNA with A25U, G26U, C28G, G29C, G31A
DNA 1: CAATCTGAATTCCGGTCTCCC
DNA 2: TGGTGGCTACGACGGGATT
B27: UUCAUCC (DNA:RNA)
RNA: B1 RNA with A25U, G26U, C28A, G29U, U30C, G31C
DNA 1: CAATCTGAATTCCGGTCTCCC
DNA 2: TGGTGGCTACGACGGGATT
B28: GAUUACU (DNA:RNA)
RNA: B8 RNA with C25G, U26A, G27U, A30C
DNA 1: CAATCTGAATTCCGGTCTCCC
DNA 2: TGGTGGCTACGACGGGATT
B29: CGAAAGG (DNA:RNA)
RNA: B1 RNA with A25C, C27A, C28A, G29A, U30G
DNA 1: CAATCTGAATTCCGGTCTCCC
DNA 2: TGGTGGCTACGACGGGATT
B30: CCGGAUA (DNA:RNA)
RNA: B8 RNA with U26C, U28G, A30U, U31A
DNA 1: CAATCTGAATTCCGGTCTCCC
DNA 2: TGGTGGCTACGACGGGATT
B31: GAUCGGG (DNA:RNA)
RNA: B1 RNA with A25G, G26A, C27U, U30G
DNA 1: CAATCTGAATTCCGGTCTCCC
DNA 2: TGGTGGCTACGACGGGATT

target: T1, RBFOX1 RRM RbFoxmut (Fox-RRM*); experiment: EMSA; HiTS-Eq, 1 nM pool, 10 min; buffer printed only for the single-RNA assays: 10 mM Tris pH 7.5, 150 mM NaCl, 3.4 mM EDTA, 0.001% NP-40, 30 C; settings: tags: His6 N-terminal (pET28a); label: 5' 32P
Outline: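 Relative association constants, normalised to the cognate motif, were derived by comparing read counts of each RNA species with those of the control reaction. The RNA sequenced was the free fraction, separated by 8% native PAGE after a 10 min equilibration in 50 µL of 1 nM 5′-radiolabelled RNA (7 randomized nucleotides) with increasing concentrations of purified wild-type or mutant RbFox RRM.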

Binder | binding signal
B1 | 0.109 KA relative to UGCAUGU
B2 | 0.157 KA relative to UGCAUGU
B3 | 0.13 KA relative to UGCAUGU
B4 | 0.0978 KA relative to UGCAUGU
B5 | 0.266 KA relative to UGCAUGU
B6 | 0.0981 KA relative to UGCAUGU
B7 | 0.204 KA relative to UGCAUGU
B8 | 0.0942 KA relative to UGCAUGU
B9 | 0.0851 KA relative to UGCAUGU
B10 | 0.119 KA relative to UGCAUGU
B11 | 0.0914 KA relative to UGCAUGU
B12 | 0.1 KA relative to UGCAUGU
B13 | 0.111 KA relative to UGCAUGU
B14 | 0.063 KA relative to UGCAUGU
B15 | 0.0904 KA relative to UGCAUGU
B16 | 0.231 KA relative to UGCAUGU

Binder | binding signal
B17 | 0.0843 KA relative to UGCAUGU
B18 | 0.1 KA relative to UGCAUGU
B19 | 0.153 KA relative to UGCAUGU
B20 | 0.0616 KA relative to UGCAUGU
B21 | 0.149 KA relative to UGCAUGU
B22 | 0.0849 KA relative to UGCAUGU
B23 | 0.0848 KA relative to UGCAUGU
B24 | 0.178 KA relative to UGCAUGU
B25 | 0.0947 KA relative to UGCAUGU
B26 | 0.109 KA relative to UGCAUGU
B27 | 0.053 KA relative to UGCAUGU
B28 | 0.104 KA relative to UGCAUGU
B29 | 0.0528 KA relative to UGCAUGU
B30 | 0.0587 KA relative to UGCAUGU
B31 | 0.0692 KA relative to UGCAUGU
